Measurements reported in PubChem BioAssay AID686978 (National Center for Advancing Translational Sciences (NCATS), 2013).
Values joined by “and” are separate entries in the source; they are usually repeats but may differ in a detail not shown here. Identical values can stand only once. In all, about 420,000 compounds went through this assay and about 64,000 (15%) were called active. The inconclusive results got no clear call from the source; some entries with a clear call stand among them for comparison. Calls come from the whole dose curve; as a rule, active = well fitted inhibition curve with a large enough effect; inconclusive = small, poorly fitted or top-dose-only effect; inactive = flat fitted curve, though single readings scatter. A potency beside an inconclusive call is a rough fit, not a confirmed value.

Experiment: qHTS for Inhibitors of human tyrosyl-DNA phosphodiesterase 1 (TDP1): qHTS in cells in absence of CPT; note: nearly all actives have a fitted effect of over 55% in size
Conditions: DT40 Tdp1-/- hTDP1 cells, no CPT, ATP luminescence, 48 h; activity change, negative = growth inhibition: at 46.2 µM (top of the series) unless noted
Summary of the method: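 Compound effects on proliferation are scored in DT40 Tdp1-/-;hTDP1 cells in the absence of CPT. ATP levels (CellTiter-Glo luminescence) are recorded after a ≥48 hr, 37 °C incubation.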
% is set by controls: 0 for no effect and ±100 for the full control effect; potency is the fitted concentration of half-maximal effect; tags give direction and shape of the fitted curve.

| SMILES | activity change, negative = growth inhibition | Potency |
| --- | --- | --- |
| O=C1OC(C(=O)Nc2cccc(Br)c2)Cc2ccccc21 (configuration not stated) | inactive: 1.96% | – |
| COC(=O)c1cn(C(=O)c2ccccc2Cl)c2ccccc12 | – | inconclusive: 29.1 µM [inhibitor, single point] |
| O=Cc1c(OCc2ccccc2)ccc2ccccc12 | inactive: -13.9% | – |
| CCN(C(=O)COC(=O)CCOc1ccc(C(C)(C)C)cc1)c1c(N)n(Cc2ccccc2)c(=O)[nH]c1=O | – | active: 3.66 µM |
| COc1cccc(N(CC(=O)NC2CCCC2)C(=O)Cn2nnc(-c3ccc(C)o3)n2)c1 | – | inconclusive: 3.66 µM [inhibitor, full curve] |
| COc1ccc(CNC(=O)Cn2c(SCC(=O)Nc3ccc(OC)cc3)nc3ccccc32)cc1 | – | inconclusive: 16.4 µM [inhibitor, single point] |
| Cc1ccc(-c2nc(CN(Cc3cnn(C)c3)C(C)C)c(C)o2)o1 | inactive: -21.3% | – |
| CCOC(=O)C1CCCCN1C(=O)c1cnn(-c2nccc(-c3cc(C)sc3C)n2)c1C1CC1 (configuration not stated) | – | inconclusive: 16.4 µM [inhibitor, single point] |
| COc1ccc(-c2ccc(Nc3ccc(S(=O)(=O)N4CCCC4)cc3)nn2)cc1OC | – | active: 18.4 µM |
| COc1ccc(CCC(=O)OCC(=O)c2ccc(C)cc2)cc1 | inactive: 12% | – |
| CCCCNC(=O)Nc1c(C)cc(SC#N)cc1C | – | active: 8.2 µM |
| Cn1nc(C(=O)NCc2ccc(Cl)cc2)c2c1-c1ccccc1S(=O)(=O)C2 | – | inconclusive: 14.6 µM [inhibitor, single point] and inconclusive: 29.1 µM [inhibitor, single point] |
| Cc1ccc(S(=O)(=O)N2CCCCC2)cc1NC(=O)c1cccnc1 | – | inconclusive: 29.1 µM [inhibitor, single point] |
| CCNC(=S)N1CCC(C(=O)c2ccc(Cl)cc2)CC1 | – | inconclusive: 29.1 µM [inhibitor, single point] |
| Cc1nc(C)c(Cc2ccccc2Cl)c(=O)[nH]1 | inactive: -6.74% | – |
| COc1ccc(OC)c(CNC(=O)c2cc3c(-c4ccc(OC)c(OC)c4)nn(C)c3s2)c1 | – | active: 8.2 µM |
| CS(=O)(=O)Nc1cccc(C2=NN(C(=O)c3ccco3)C(c3cccs3)C2)c1 (configuration not stated) | – | inconclusive: 16.4 µM [inhibitor, single point] |
| Cc1nnc(SCCn2c(N3CCCCC3)nc3c2c(=O)n(C)c(=O)n3C)s1 | – | inconclusive: 16.4 µM [inhibitor, partial curve] |
| CC(=O)Nc1ccc(S(=O)(=O)NCc2ccc(C)cc2)cc1 | – | inconclusive: 7.31 µM [inhibitor, single point] |

| SMILES | activity change, negative = growth inhibition | Potency |
| --- | --- | --- |
| COc1ccc(NC(=O)CCN(c2ccc(OC)cc2)S(=O)(=O)c2ccc(C)c(C)c2)cc1 | – | inconclusive: 8.2 µM [inhibitor, partial curve] |
| Cc1cc(C(=O)Nc2nc3c(s2)CCCC3)cs1 | – | inconclusive: 29.1 µM [inhibitor, single point] |
| Cc1ccc2c(c1)-c1c(ssc1=S)C(C)(C)N2C(=O)c1ccco1 | – | active: 16.4 µM |
| Cc1ccc(NC(=O)c2ccc(-c3cccc(Cl)c3C)o2)cc1 | – | inconclusive: 29.1 µM [inhibitor, single point] |
| C#CCNC(=O)C[C@@H]1C[C@@]2(C(=O)OC)CCCCC=C2N(Cc2cccc3ccccc23)C1=O | – | inconclusive: 25.9 µM [inhibitor, single point] |
| COc1cc(C(=O)NCCC(=O)NCc2ccc3c(c2)OCO3)cc(OC)c1OC | inactive: -2.4% | – |
| CCc1ccc2nc(N(CCN(CC)CC)C(=O)c3ccco3)sc2c1 | – | inconclusive: 20.6 µM [inhibitor, single point] |
| COc1ccc2cc(C(=O)/C=C/c3cc(OC)c(OC)c(OC)c3)ccc2c1 | – | active: 20.6 µM |
| CCCCCn1c(=O)[nH]c2cc(C(=O)Nc3cc(C)cc(C)c3)ccc2c1=O | – | active: 4.61 µM |
| Cc1ccc2nc(-c3ccncc3)c(NC3CCCCC3)n2c1 | – | inconclusive: 29.1 µM [inhibitor, single point] |
| CCN(CC)C(=O)c1cc(-c2ccc3c(c2)OCO3)on1 | inactive: 0.12% | – |
| CC(CC(=O)Nc1ccc(C(N)=O)cc1)c1ccccc1 (configuration not stated) | inactive: -21.4% | – |
| O=C(O)c1cc2ccccc2c(=O)s1 | inactive: -6.59% | – |
| O=C(CCNC(=O)C1CCN(S(=O)(=O)c2ccc(F)cc2)CC1)NCc1ccc(Cl)cc1 | inactive: -17.3% | – |
| c1ccc2c(CCc3c[nH]c4ccccc34)ccnc2c1 | – | active: 15.8 µM |
| COc1ccccc1S(=O)(=O)CC(O)COc1ccccc1Cl (configuration not stated) | inactive: -0.412% | – |
| Cc1ccc(C)c(OCC(=O)NCCNC(=O)COc2cc(C)ccc2C)c1 | – | inconclusive: 18.4 µM [inhibitor, single point] |
| C=CCn1c(SCc2cc(=O)n3ccsc3n2)nc2sc(C)c(C)c2c1=O | – | inconclusive: 29.1 µM [inhibitor, single point] |
